Reference: PubChem BioAssay AID485294 (National Center for Advancing Translational Sciences (NCATS), 2010)
Where “and” joins values, the source holds several entries; their conditions need not be identical. Identical values can stand only once. The campaign covered roughly 370,000 compounds. About 150 (0.041%) were called active. This list was built around the results that the source calls inconclusive (neither active nor inactive); the mix of calls is not that of the screen. Calls come from the whole dose curve; as a rule, active = well fitted inhibition curve with a large enough effect; inconclusive = small, poorly fitted or top-dose-only effect; inactive = flat fitted curve, though single readings scatter. Potencies of inconclusive entries are doubtful fits and often do not repeat.

Target: Beta-lactamase (Escherichia coli (strain K12)) (UniProt P00811)
Sequence of UniProt P00811 (P00811 whole entry, looked up): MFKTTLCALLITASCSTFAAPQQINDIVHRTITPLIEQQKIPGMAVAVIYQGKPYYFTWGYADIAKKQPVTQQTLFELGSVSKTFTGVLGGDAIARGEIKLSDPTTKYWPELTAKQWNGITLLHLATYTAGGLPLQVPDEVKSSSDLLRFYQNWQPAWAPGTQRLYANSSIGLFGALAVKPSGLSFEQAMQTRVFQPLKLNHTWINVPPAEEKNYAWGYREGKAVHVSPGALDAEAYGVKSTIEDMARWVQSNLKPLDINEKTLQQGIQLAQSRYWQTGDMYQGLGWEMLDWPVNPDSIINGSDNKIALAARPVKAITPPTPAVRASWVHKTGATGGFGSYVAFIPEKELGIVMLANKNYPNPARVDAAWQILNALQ
Experiment: qHTS Inhibitors of AmpC Beta-Lactamase (assay with detergent); note: nearly all actives have a fitted effect of over 25% in size;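 for activity change, negative = inhibition: 0% = no-compound wells and -100% = no-enzyme wells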
Settings: AmpC hydrolysis of nitrocefin, absorbance 480 nm, 0.01% Triton; activity change, negative = inhibition: at 114 µM (top of the series)
Procedure, shortened: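 AmpC (5.3 nM in the dispensed reagent) in 20 mM phosphate pH 7.0 with 0.01% (detergent screen) or 0.0001% Triton X-100 was preincubated with compounds for 15 min at room temperature. Nitrocefin was then added from an 800 uM solution, and hydrolysis was followed at 480 nm.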
Potency is the fitted concentration of half-maximal effect; tags give direction and shape of the fitted curve.

Structure (SMILES)	activity change, negative = inhibition	Potency
Cc1c(C(=O)NCc2cccc(Cl)c2)sc2nc[nH]c(=O)c12	inactive: -7.08%	–
O=C(Nc1ccc2c(c1)CCCN2C(=O)c1cccs1)c1ccccc1	–	inactive and inconclusive: 2.82 µM [inhibitor, full curve, poor fit]
Cc1ccc(Cn2c(Sc3ncccn3)nc3c2c(=O)[nH]c(=O)n3C)cc1	inactive: -0.741%	–
Cc1c(/C=N/NC(=O)CNc2ccccc2)c2ccccn2c1C(=O)c1ccc(Cl)cc1	inactive: 0.15%	–
COc1ccc(S(=O)(=O)N(C)CC(=O)NCc2cccnc2)cc1	–	inconclusive: 0.891 µM [inhibitor, full curve]
COc1ccccc1NC(=S)NCC1CCCCC1	inactive: -7.85%	–
COc1ccc(C(=O)NNC(=O)C2CCCO2)cc1 (centres undefined)	–	inconclusive: 89.1 µM [inhibitor, partial curve]
COC(=O)c1c(C)[nH]c(C(=O)CSc2ccc(Cl)cc2)c1C	inactive: -9.73%	–
CC1(C)Cc2c(C#N)c(SCCOc3ccccc3)nc(N3CCOCC3)c2CO1	–	inconclusive: 100 µM [inhibitor, single point]
COc1ccc(CNC(=O)C[C@H]2C(=O)N(Cc3ccc(OC)cc3)C[C@@H]2Cc2ccccc2)cc1	–	inconclusive: 2.82 µM [inhibitor, full curve, poor fit]
CCCn1c2c(c(O)c(C(=O)Nc3nccs3)c1=O)CCCC2	–	inconclusive: 5.01 µM [inhibitor, full curve, poor fit]
Cc1ccccc1-c1nn(-c2ccc(F)cc2F)cc1CNCCCN(C)C	inactive: -2.99%	–
CC(C)(C)OC(=O)NCCc1nnc(SCC(N)=O)o1	–	inconclusive: 0.631 µM [inhibitor, full curve, poor fit]
COc1cccc(C(=O)NC2CCN(C(=O)N3c4ccccc4Sc4ccccc43)CC2)c1	inactive: -2.09%	–
COC(=O)C1CCN(C(c2cccs2)c2sc3nc(C)nn3c2O)CC1 (centres undefined)	–	inconclusive: 1.41 µM [inhibitor, full curve]
S=C1NCN(CCc2ccccc2)CN1Cc1ccccc1	inactive: 6.75%	–
Cc1cc(NC(=O)CSc2nnc3ccc(-c4ccc(F)cc4)nn23)no1	inactive: -11.4%	–
Cc1nn(-c2ccccc2)c(N2CCCC2)c1/C=N/NC(=O)C1CC1	inactive: 6.83%	–
N#CCC(=O)Nc1ccc(C(=O)OCC(=O)Nc2cccc(C(F)(F)F)c2)cc1	–	inconclusive: 56.2 µM [inhibitor, partial curve, poor fit]
CCOC(=O)C1CCCN(S(=O)(=O)c2ccc(C)cc2)C1 (centres undefined)	inactive: -3.75%	–
NS(=O)(=O)c1ccc(CNC(=O)Cc2ccc(S(=O)(=O)N3CCOCC3)s2)cc1	–	inconclusive: 0.355 µM [inhibitor, full curve, poor fit]
O=C(c1cc(Cl)ccc1OCc1ccccc1)N1CCOCC1	–	inconclusive: 7.94 µM [inhibitor, full curve]

Structure (SMILES)	activity change, negative = inhibition	Potency
CCn1nc(NC(=O)c2ccco2)c2cc3cc(C)ccc3nc21	inactive: -2.89%	–
Cc1cc(C(=O)Nc2cccnc2)no1	–	inconclusive: 2 µM [inhibitor, full curve]
CCC(NS(=O)(=O)c1ccc(C)cc1)C(=O)N1CCN(c2ccccn2)CC1 (centres undefined)	–	inconclusive: 0.631 µM [inhibitor, full curve, poor fit]
CCc1ccc(-c2nn(-c3ccccc3)cc2C2SCC(=O)N2Cc2ccco2)cc1 (centres undefined)	–	inconclusive: 31.6 µM [inhibitor, single point]
COc1ccccc1-n1c(SCC(=O)N2CCCC2)nnc1-c1ccccc1	–	inconclusive: 56.2 µM [inhibitor, partial curve]
O=C(NCc1ccc(Cl)cc1)c1ccccc1CCc1ccccc1	–	inconclusive: 11.2 µM [inhibitor, full curve, poor fit]
Cc1ccc(NC(=O)CNC(=O)c2ccc(Br)o2)nc1	–	inconclusive: 1.41 µM [inhibitor, full curve]
CCN(CC)S(=O)(=O)c1cc(C(=O)Nc2cccnc2Cl)ccc1Cl	–	inconclusive: 39.8 µM [inhibitor, single point]
Cc1nn(C)c(C)c1S(=O)(=O)N1CCc2ccccc21	–	inconclusive: 44.7 µM [inhibitor, full curve, poor fit]
CCOC(=O)N1CCN(C(=O)c2cn(-c3ccc(C)c(C)c3)c(=O)c3ccccc23)CC1	–	inconclusive: 100 µM [inhibitor, single point]
O=C(CSc1c2c(nc3ccccc13)CCC2)Nc1ccc(F)cc1	inactive: 1.29%	–
COc1ccc(Cn2c(C(=O)O)c(CNCc3ccco3)c3ccc(OC)cc32)cc1	inactive: -0.673%	–
CCCCN(CCCC)CCC(O)c1cc2c(Cl)cc(Cl)cc2c2cc(C(F)(F)F)ccc12 (centres undefined)	–	inconclusive: 5.62 µM [inhibitor, full curve, poor fit]
O=C(C1CCN(S(=O)(=O)c2ccccc2)CC1)N1CCCCCC1	inactive: -5.37%	–
CC1C(=O)N2CCCc3cc(S(=O)(=O)NCc4ccccc4Cl)cc1c32 (centres undefined)	–	inconclusive: 1.78 µM [inhibitor, full curve, poor fit]
CCCC(c1nnnn1CCOC)N1CCN(c2cccc(OC)c2)CC1 (centres undefined)	–	inconclusive: 20 µM [inhibitor, partial curve, poor fit]
CC(=O)c1ccc(NC(=O)CCC(=O)OCC(F)(F)C(F)F)cc1	–	inconclusive: 100 µM [inhibitor, partial curve, poor fit]
Cc1scc(C(=O)N/N=C/c2ccc(OCC(C)C)cc2)c1C	–	inconclusive: 15.8 µM [inhibitor, full curve, poor fit]
CC(C)CCNC(=O)c1cc(-c2ccncc2)nc2ccc(S(=O)(=O)N3CCOCC3)cc12	–	inconclusive: 28.2 µM [inhibitor, full curve, poor fit]
c1ccc(-c2nnc(CSc3nnc(-c4cccs4)o3)o2)cc1	–	inconclusive: 0.355 µM [inhibitor, full curve, poor fit]
O=C(CNC(=O)N1CC(=O)Nc2ccccc21)NCc1cccc(Cl)c1	–	inconclusive: 0.631 µM [inhibitor, full curve, poor fit]
Cc1ccc(S(=O)(=O)Nc2cc(C(C)C)c(O)cc2C)cc1	–	inconclusive: 100 µM [inhibitor, single point]
